# According to the supplement of paper PMC10037445:
# The full ranking holds about 2,900 compounds; the median of “NF-kB SEAP reporter activity, fold change vs agonist alone” is about 0.99, and the highest 2% start at about 2.6. This is one part of the list.
# Key:
# [1] = test system: RAW-Dual; assay: NF-kB SEAP reporter activity, fold change vs agonist alone; cytotoxicity flag (confluency mask): not cytotoxic; higher = enhanced NF-kB activity
# Procedure, shortened: (§1)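 RAW-Dual macrophages (50,000 cells/well in DMEM, 384-well plates) received 50 nL of library stock by pin tool, then a PRR agonist 1 h later, and were kept at 37 °C, 5% CO2. After 20 hours, supernatant was read for IRF by QuantiLuc luminescence and for NF-κB by QuantiBlue absorbance at 620 nm. Reporter activity is fold change over agonist-alone wells. Cytotoxic wells had IncuCyte confluency below 70% of agonist controls in both mask sets.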
# [2] = test system: RAW-Dual; assay: NF-kB SEAP reporter activity, fold change vs agonist alone; higher = enhanced NF-kB activity
# Procedure, shortened: as §1
# [3] = test system: RAW-Dual; assay: NF-kB SEAP reporter activity, fold change vs agonist alone; cytotoxicity flag (confluency mask): cytotoxic (confluency <70% of control); higher = enhanced NF-kB activity
# Procedure, shortened: as §1
# [4] = agonist: ODN 1826 (TLR9) 0.5 ug/mL
# [5] = agonist: Pam2CSK4 (TLR2/6) 0.1 ug/mL
# [6] = agonist: Pam3CSK4 (TLR2/1) 0.1 ug/mL
# [7] = library stock concentration (final ~1000-fold dilution): 10 mM, cytotoxicity flag (confluency mask): not cytotoxic, agonist: Imiquimod (TLR7) […]
# [8] = library stock concentration (final ~1000-fold dilution): 10 mM, cytotoxicity flag (confluency mask): not cytotoxic, agonist: MPLA (TLR4) […]
smiles,measurement,setting,value
CC(C)C1C(=O)NC(CCCNC(=N)N)C(=O)NCC(=O)NC(CC(=O)O)C(=O)NC(Cc2ccccc2)C(=O)N1C.O=C(O)C(F)(F)F (configuration not stated) (library stock concentration (final ~1000-fold dilution): 10 mM),NF-kB SEAP reporter activity,[1]; agonist: LPS (TLR4) 0.1 ug/mL,0.99
same,NF-kB SEAP reporter activity,[1]; [4],1.01
same,NF-kB SEAP reporter activity,[1]; [5],0.985
same,NF-kB SEAP reporter activity,[1]; [6],0.921
CC(C)C1C(=O)NC(CCCNC(=N)N)C(=O)NCC(=O)NC(CC(=O)O)C(=O)NC(Cc2ccccc2)C(=O)N1C.O=C(O)C(F)(F)F (configuration not stated),NF-kB SEAP reporter activity,[2]; [7],0.977
same,NF-kB SEAP reporter activity,[2]; [8],1.11
N#C/C(=C\c1cn(-c2ccccc2)c2ccccc12)C(=O)O (library stock concentration (final ~1000-fold dilution): 10 mM),NF-kB SEAP reporter activity,[1]; agonist: LPS (TLR4) 0.1 ug/mL,0.823
same,NF-kB SEAP reporter activity,[1]; [4],0.857
same,NF-kB SEAP reporter activity,[1]; [5],0.954
same,NF-kB SEAP reporter activity,[1]; [6],0.662
N#C/C(=C\c1cn(-c2ccccc2)c2ccccc12)C(=O)O,NF-kB SEAP reporter activity,[2]; [8],0.864
Brc1ccc(C2CN3CCSC3=N2)cc1.O=C(O)C(=O)O (configuration not stated) (library stock concentration (final ~1000-fold dilution): 10 mM),NF-kB SEAP reporter activity,[1]; agonist: LPS (TLR4) 0.1 ug/mL,1.48
same,NF-kB SEAP reporter activity,[1]; [4],0.888
same,NF-kB SEAP reporter activity,[1]; [5],0.956
same,NF-kB SEAP reporter activity,[1]; [6],1.01
Brc1ccc(C2CN3CCSC3=N2)cc1.O=C(O)C(=O)O (configuration not stated),NF-kB SEAP reporter activity,[2]; [7],0.948
same,NF-kB SEAP reporter activity,[2]; [8],1.01
CCN(CC)CCNC(=O)c1cc(Cl)c(N)cc1OC,NF-kB SEAP reporter activity,[2]; [7],0.902
same,NF-kB SEAP reporter activity,[2]; [8],1.14
CCN(CC)CCNC(=O)c1cc(Cl)c(N)cc1OC (library stock concentration (final ~1000-fold dilution): 10 mM),NF-kB SEAP reporter activity,[1]; agonist: LPS (TLR4) 0.1 ug/mL,0.998
same,NF-kB SEAP reporter activity,[1]; [4],0.933
same,NF-kB SEAP reporter activity,[1]; [5],1
same,NF-kB SEAP reporter activity,[1]; [6],1.04
COc1cc2c(Oc3ccc(NC(=O)C4(C(=O)Nc5ccc(F)cc5)CC4)cc3F)ccnc2cc1OCCCN1CCOCC1 (library stock concentration (final ~1000-fold dilution): 10 mM),NF-kB SEAP reporter activity,[1]; agonist: LPS (TLR4) 0.1 ug/mL,0.266
same,NF-kB SEAP reporter activity,[1]; [4],0.184
same,NF-kB SEAP reporter activity,[1]; [5],0.0818
same,NF-kB SEAP reporter activity,[1]; [6],0.137
COc1cc2c(Oc3ccc(NC(=O)C4(C(=O)Nc5ccc(F)cc5)CC4)cc3F)ccnc2cc1OCCCN1CCOCC1,NF-kB SEAP reporter activity,[2]; [7],0.252
same,NF-kB SEAP reporter activity,[2]; [8],0.252
CC(=O)c1ccc2c(c1)c1cc(C(C)=O)ccc1n2CCNC(C)C,NF-kB SEAP reporter activity,"[2]; library stock concentration (final ~1000-fold dilution): 10 mM, cytotoxicity flag (confluency mask): cytotoxic (confluency <70% of control), agonist: Imiquimod (TLR7) […]",0.147
same,NF-kB SEAP reporter activity,"[2]; library stock concentration (final ~1000-fold dilution): 10 mM, cytotoxicity flag (confluency mask): cytotoxic (confluency <70% of control), agonist: MPLA (TLR4) […]",0.242
CC(=O)c1ccc2c(c1)c1cc(C(C)=O)ccc1n2CCNC(C)C (library stock concentration (final ~1000-fold dilution): 10 mM),NF-kB SEAP reporter activity,[3]; agonist: LPS (TLR4) 0.1 ug/mL,0.301
same,NF-kB SEAP reporter activity,[3]; [4],0.193
same,NF-kB SEAP reporter activity,[3]; [5],0.0764
same,NF-kB SEAP reporter activity,[3]; [6],0.183
COc1cc(N2CCC(N(C)C)CC2)ccc1Nc1ncc(Cl)c(Nc2ccccc2P(C)(C)=O)n1 (library stock concentration (final ~1000-fold dilution): 10 mM),NF-kB SEAP reporter activity,[1]; agonist: LPS (TLR4) 0.1 ug/mL,1.87
same,NF-kB SEAP reporter activity,[1]; [4],1.64
same,NF-kB SEAP reporter activity,[1]; [5],1.03
same,NF-kB SEAP reporter activity,[1]; [6],1.46
COc1cc(N2CCC(N(C)C)CC2)ccc1Nc1ncc(Cl)c(Nc2ccccc2P(C)(C)=O)n1,NF-kB SEAP reporter activity,[2]; [7],1.64
same,NF-kB SEAP reporter activity,[2]; [8],2.05
Cl.Clc1ccc2nsnc2c1NC1=NCCN1,NF-kB SEAP reporter activity,[2]; [7],0.909
same,NF-kB SEAP reporter activity,[2]; [8],0.881
Cl.Clc1ccc2nsnc2c1NC1=NCCN1 (library stock concentration (final ~1000-fold dilution): 10 mM),NF-kB SEAP reporter activity,[1]; agonist: LPS (TLR4) 0.1 ug/mL,0.929
same,NF-kB SEAP reporter activity,[1]; [4],0.949
same,NF-kB SEAP reporter activity,[1]; [5],1.1
same,NF-kB SEAP reporter activity,[1]; [6],0.986
Nc1ccccc1S(N)(=O)=O,NF-kB SEAP reporter activity,[2]; [8],1.07
Nc1ccccc1S(N)(=O)=O (library stock concentration (final ~1000-fold dilution): 10 mM),NF-kB SEAP reporter activity,[1]; agonist: LPS (TLR4) 0.1 ug/mL,1.36
same,NF-kB SEAP reporter activity,[1]; [4],0.952
same,NF-kB SEAP reporter activity,[1]; [5],0.995
same,NF-kB SEAP reporter activity,[1]; [6],1.05
CC(C)[N+](C)(CCOC(=O)C1c2ccccc2Oc2ccccc21)C(C)C (library stock concentration (final ~1000-fold dilution): 10 mM),NF-kB SEAP reporter activity,[1]; agonist: LPS (TLR4) 0.1 ug/mL,0.964
same,NF-kB SEAP reporter activity,[1]; [4],0.96
same,NF-kB SEAP reporter activity,[1]; [5],0.905
same,NF-kB SEAP reporter activity,[1]; [6],0.976
CC(C)[N+](C)(CCOC(=O)C1c2ccccc2Oc2ccccc21)C(C)C,NF-kB SEAP reporter activity,[2]; [8],1.08
COc1ccccc1Nc1nc(-c2sc(NC(C)=O)nc2C)cs1 (library stock concentration (final ~1000-fold dilution): 10 mM),NF-kB SEAP reporter activity,[1]; agonist: LPS (TLR4) 0.1 ug/mL,0.496
same,NF-kB SEAP reporter activity,[1]; [4],0.464
same,NF-kB SEAP reporter activity,[1]; [5],0.318
same,NF-kB SEAP reporter activity,[1]; [6],0.245
COc1ccccc1Nc1nc(-c2sc(NC(C)=O)nc2C)cs1,NF-kB SEAP reporter activity,[2]; [7],0.623
same,NF-kB SEAP reporter activity,[2]; [8],0.687
CCCC1CC(C(=O)NC(C(C)Cl)C2OC(SC)C(OP(=O)(O)O)C(O)C2O)N(C)C1 (configuration not stated),NF-kB SEAP reporter activity,"[2]; library stock concentration (final ~1000-fold dilution): 10 mM water, cytotoxicity flag (confluency mask): not cytotoxic, agonist: Imiquimod (TLR7) […]",0.893
same,NF-kB SEAP reporter activity,"[2]; library stock concentration (final ~1000-fold dilution): 10 mM water, cytotoxicity flag (confluency mask): not cytotoxic, agonist: MPLA (TLR4) […]",1.06
CCCC1CC(C(=O)NC(C(C)Cl)C2OC(SC)C(OP(=O)(O)O)C(O)C2O)N(C)C1 (configuration not stated) (library stock concentration (final ~1000-fold dilution): 10 mM water),NF-kB SEAP reporter activity,[1]; agonist: LPS (TLR4) 0.1 ug/mL,1.09
same,NF-kB SEAP reporter activity,[1]; [4],1.11
same,NF-kB SEAP reporter activity,[1]; [5],1.17
same,NF-kB SEAP reporter activity,[1]; [6],1.12
COc1ccc(Cn2ccc3ccc(C(=O)NO)cc32)cc1 (library stock concentration (final ~1000-fold dilution): 10 mM),NF-kB SEAP reporter activity,[1]; agonist: LPS (TLR4) 0.1 ug/mL,0.996
same,NF-kB SEAP reporter activity,[1]; [4],0.62
same,NF-kB SEAP reporter activity,[1]; [5],0.788
same,NF-kB SEAP reporter activity,[1]; [6],0.588
COc1ccc(Cn2ccc3ccc(C(=O)NO)cc32)cc1,NF-kB SEAP reporter activity,[2]; [7],0.789
same,NF-kB SEAP reporter activity,[2]; [8],0.903
C#Cc1cccc(Nc2ncnc3cc(OCCOC)c(OCCOC)cc23)c1,NF-kB SEAP reporter activity,[2]; [7],1.02
same,NF-kB SEAP reporter activity,[2]; [8],1.88
